# According to PubChem BioAssay AID1468 (National Center for Advancing Translational Sciences (NCATS), 2008):
# Screen size: about 280,000 compounds; about 1,100 (0.39%) were called active. Inconclusive means that the source gave no clear call. Such entries were picked first, then a sample of the others. Calls follow the shape of the dose curve; as a rule, active = well fitted inhibition curve with a large enough effect; inconclusive = small, poorly fitted or top-dose-only effect, or effect the other way; inactive = flat fitted curve, though single readings scatter. Potencies of inconclusive entries are left out as doubtful fits.
# Molecular target: Microtubule-associated protein tau (Homo sapiens) (UniProt P10636)
# Experiment: qHTS for Inhibitors of Tau Fibril Formation, Fluorescence Polarization; also: nearly all actives have a fitted effect of over 55% in size
# Conditions: K18 P301L tau heparin fibrillization, Alexa594 FP, 6 h; series mostly up to 57.7 µM
# In short: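 Human tau K18 […] P301L fragment, 15 uM unlabeled plus 0.24 uM Alexa 594-labeled tau (final), with compound and 20 uM heparin in 100 mM sodium acetate pH 7; 6 hr at 37 C, then Alexa 594 FP read.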
# Potency is read from the fitted curve at half-maximal effect; tags tell the direction and shape of the fitted curve.
# UniProt P10636, sequence (P10636 whole entry, looked up): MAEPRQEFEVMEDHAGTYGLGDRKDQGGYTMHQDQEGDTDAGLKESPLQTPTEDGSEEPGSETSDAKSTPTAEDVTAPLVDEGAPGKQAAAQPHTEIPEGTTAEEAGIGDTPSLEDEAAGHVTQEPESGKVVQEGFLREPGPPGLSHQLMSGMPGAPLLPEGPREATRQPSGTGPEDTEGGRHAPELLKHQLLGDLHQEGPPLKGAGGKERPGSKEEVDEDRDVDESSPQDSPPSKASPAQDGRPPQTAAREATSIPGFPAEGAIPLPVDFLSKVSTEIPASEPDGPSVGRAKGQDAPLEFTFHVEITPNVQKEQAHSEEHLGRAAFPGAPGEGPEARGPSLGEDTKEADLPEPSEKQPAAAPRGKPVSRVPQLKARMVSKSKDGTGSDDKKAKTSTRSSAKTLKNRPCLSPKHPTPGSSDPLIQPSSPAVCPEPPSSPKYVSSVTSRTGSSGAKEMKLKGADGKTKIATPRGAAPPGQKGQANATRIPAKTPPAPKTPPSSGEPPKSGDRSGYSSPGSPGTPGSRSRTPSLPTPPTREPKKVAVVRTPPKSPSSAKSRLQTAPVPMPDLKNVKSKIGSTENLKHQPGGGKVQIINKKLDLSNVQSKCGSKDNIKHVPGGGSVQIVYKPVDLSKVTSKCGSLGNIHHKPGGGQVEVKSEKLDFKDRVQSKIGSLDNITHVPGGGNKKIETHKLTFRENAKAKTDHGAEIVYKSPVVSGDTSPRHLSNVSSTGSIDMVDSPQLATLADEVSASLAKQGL
row,SMILES,Potency
1,Cc1ccc(-n2nnnc2SC(C(=O)c2c[nH]c3ccccc23)c2ccccc2)cc1 (configuration not stated),active: 11.2 µM
2,Cn1c(=O)c2c(nc(NCCc3ccccc3)n2Cc2cccc(Br)c2)n(C)c1=O,"inconclusive [inhibitor, single point]"
3,CCOC(=O)CN(C(=O)CNC(=O)c1cccs1)C(C(=O)NC1CCCCC1)c1cccnc1 (configuration not stated),"inconclusive [inhibitor, single point]"
4,Cc1ccc(CNC(=O)c2c[nH]c3ccc(S(=O)(=O)Nc4ccc(C(C)C)cc4)cc3c2=O)cc1,"inconclusive [inhibitor, partial curve, poor fit]"
5,CC(=O)Nc1ccc(S(=O)(=O)N2c3ccccc3C(C)=CC2(C)C)cc1,"inconclusive [inhibitor, partial curve]"
6,CCCNc1nc(-c2ccccc2)c(C(=O)OCC)cc1C#N,inactive
7,O=C(Cc1cccs1)NNC(=S)NC(=O)c1ccco1,inactive
8,COc1ccc(Cl)cc1NC(=S)Nc1ccccc1C,inactive
9,O=S(=O)(c1ccc(Cl)cc1)c1nc(-c2ccccc2Br)oc1N1CCOCC1,inactive
10,Cc1cc(/C=C2\SC(=S)NC2=O)c(C)n1C1CC1,inactive
11,O=C(CSCc1ccc(Cl)cc1)N/N=C/c1c(Cl)cccc1Cl,"inconclusive [inhibitor, full curve, poor fit]"
12,Cc1nnc2n1NC(c1ccc(Cl)cc1)C(C(=O)N(C)C1CCCCC1)S2 (configuration not stated),inactive
13,CC(=O)Cn1cnc2sc(-c3ccccc3)cc2c1=O,inactive
14,C=CCn1c(NC(=O)c2ccccc2Cl)c(C#N)c2nc3ccccc3nc21,"inconclusive [inhibitor, partial curve]"
15,O=C(Nc1ccc(F)cc1)C(Sc1nc2ccccc2[nH]1)c1ccccc1 (configuration not stated),"inconclusive [inhibitor, single point]"
16,COc1ccccc1OCC(=O)NCC1(N2CCOCC2)CCCCC1,"inconclusive [inhibitor, single point]"
17,CC(C)(C=O)Cc1cc(C(C)(C)C)c(O)c(C(C)(C)C)c1,"inconclusive [inhibitor, single point]"
18,O=c1c2oc3ccccc3c2n(Cc2cccc(Cl)c2)c(=O)n1Cc1ccc2c(c1)OCO2,"inconclusive [inhibitor, partial curve, poor fit]"
19,Cc1ccc(C)c(N2CCN(C(=O)c3ccc(CSc4nc5ccncc5[nH]4)cc3)CC2)c1,"inconclusive [inhibitor, partial curve, poor fit]"
20,CC1CCN(c2ccc(-c3cccc(NS(=O)(=O)c4ccc(Cl)s4)c3)nn2)CC1,"inconclusive [inhibitor, single point]"
21,NC(=O)CC(NC(=O)Cc1ccc(Br)cc1)c1ccc(N2CCC(Cc3ccccc3)CC2)c([N+](=O)[O-])c1 (configuration not stated),"inconclusive [inhibitor, single point]"

row,SMILES,Potency
1,Cc1cc(C2=CC(C)(c3cc(C)oc3C)Nc3nc(C(F)(F)F)nn32)c(C)o1 (configuration not stated),"inconclusive [inhibitor, partial curve]"
2,CCn1cc(C2=NC(C)CO2)c2ccccc21 (configuration not stated),"inconclusive [inhibitor, single point]"
3,COc1ccc(C2C(C#N)=C(N)Oc3n[nH]c(C)c32)cc1CN1CCN(c2ccc(F)cc2)CC1 (configuration not stated),"inconclusive [inhibitor, partial curve, poor fit]"
4,c1ccc(-c2nc(-n3ccnc3)nc(-n3ccnc3)n2)cc1,inactive
5,CCC(=O)Nc1ccc2nc(SCCOc3cccc(C)c3)sc2c1,"inconclusive [inhibitor, full curve]"
6,COc1ccc(CN(C(=O)c2nsc(Cl)c2Cl)C(C(=O)NC2CCCC2)c2ccc(C)cc2)cc1 (configuration not stated),inactive
7,Cc1ccc(S(=O)(=O)c2nnn(CC(=O)Nc3ccccc3C)c2N)cc1C,"inconclusive [inhibitor, single point]"
8,CCOc1cccc(C(=O)Nc2ccc3oc(-c4ccc(C(C)(C)C)cc4)nc3c2)c1,"inconclusive [inhibitor, partial curve, poor fit]"
9,COc1ccc(NC(=O)Cn2c(=O)n(-c3cccc(C)c3)c(=O)c3c2c2cc(C)ccc2n3C)cc1OC,inactive
10,CC1CCCN(C(=S)Nc2ccc(Nc3ccccc3)cc2)C1 (configuration not stated),"inconclusive [activator, partial curve]"
11,CCOC(=O)c1c(NC(=O)c2ccccc2Cl)sc2c1CCc1ccccc1-2,inactive
12,COc1ccc(-c2n[nH]c3c2C(c2ccc(Cl)cc2Cl)NC3=O)cc1 (configuration not stated),"inconclusive [activator, single point]"
13,Cc1[nH]c2ccccc2c1C(=O)CSc1ccc(Cl)cc1,inactive
14,CCOC(=O)c1ccc(-c2ccc(/C=C(\C#N)C(=O)Nc3c(C)cccc3Cl)o2)cc1,inactive
15,C#CCSc1nc2sc3c(c2c(=O)n1-c1cccc(OC)c1)CCN(C(C)=O)C3,"inconclusive [inhibitor, partial curve]"
16,CCN(CC)c1ccc(NC(=O)COc2ccc(C#N)cc2)cc1S(=O)(=O)Nc1ccc(OC)cc1,"inconclusive [inhibitor, single point]"
17,COc1ccc(NC2=C(NCCO)C(=O)c3ccccc3C2=O)cc1,"inconclusive [inhibitor, partial curve, poor fit]"
18,N#C/C(=C\c1ccc(OCc2ccccc2)cc1)C(=O)Nc1nc2c(s1)CCN(Cc1ccccc1)C2,"inconclusive [activator, single point]"
19,COC(=O)c1cc(C(=O)OC)cc(N2C(=O)CC(Sc3nc(C)cc(C)n3)C2=O)c1 (configuration not stated),inactive
20,CS(=O)(=O)Nc1cccc(-c2ccc3ncnc(Nc4ccc(F)cc4)c3c2)c1,"inconclusive [inhibitor, partial curve]"
21,COc1cc(OC)c(NC(=O)CSC2=Nc3ccccc3N=C(c3ccc(F)cc3)C2)cc1Cl,"inconclusive [inhibitor, single point]"
